# Experimental data: PubChem BioAssay AID504332 (National Center for Advancing Translational Sciences (NCATS), 2011)
# Where “and” joins values, the source holds several entries; their conditions need not be identical. Equal entries are not always repeated. The campaign covered roughly 350,000 compounds. About 31,000 (8.9%) were called active. This list was built around the results that the source calls inconclusive (neither active nor inactive); the mix of calls is not that of the screen. The call rests on the fitted dose curve; in most records, active means well fitted inhibition curve with a large enough effect; inconclusive means small, poorly fitted or top-dose-only effect; inactive means no such curve, though single readings can be large or run the other way. Potencies of inconclusive entries are doubtful fits and often do not repeat.
# Biological target: Histone-lysine N-methyltransferase EHMT2 (Homo sapiens) (UniProt Q96KQ7)
# UniProt Q96KQ7, sequence (Q96KQ7 whole entry, looked up): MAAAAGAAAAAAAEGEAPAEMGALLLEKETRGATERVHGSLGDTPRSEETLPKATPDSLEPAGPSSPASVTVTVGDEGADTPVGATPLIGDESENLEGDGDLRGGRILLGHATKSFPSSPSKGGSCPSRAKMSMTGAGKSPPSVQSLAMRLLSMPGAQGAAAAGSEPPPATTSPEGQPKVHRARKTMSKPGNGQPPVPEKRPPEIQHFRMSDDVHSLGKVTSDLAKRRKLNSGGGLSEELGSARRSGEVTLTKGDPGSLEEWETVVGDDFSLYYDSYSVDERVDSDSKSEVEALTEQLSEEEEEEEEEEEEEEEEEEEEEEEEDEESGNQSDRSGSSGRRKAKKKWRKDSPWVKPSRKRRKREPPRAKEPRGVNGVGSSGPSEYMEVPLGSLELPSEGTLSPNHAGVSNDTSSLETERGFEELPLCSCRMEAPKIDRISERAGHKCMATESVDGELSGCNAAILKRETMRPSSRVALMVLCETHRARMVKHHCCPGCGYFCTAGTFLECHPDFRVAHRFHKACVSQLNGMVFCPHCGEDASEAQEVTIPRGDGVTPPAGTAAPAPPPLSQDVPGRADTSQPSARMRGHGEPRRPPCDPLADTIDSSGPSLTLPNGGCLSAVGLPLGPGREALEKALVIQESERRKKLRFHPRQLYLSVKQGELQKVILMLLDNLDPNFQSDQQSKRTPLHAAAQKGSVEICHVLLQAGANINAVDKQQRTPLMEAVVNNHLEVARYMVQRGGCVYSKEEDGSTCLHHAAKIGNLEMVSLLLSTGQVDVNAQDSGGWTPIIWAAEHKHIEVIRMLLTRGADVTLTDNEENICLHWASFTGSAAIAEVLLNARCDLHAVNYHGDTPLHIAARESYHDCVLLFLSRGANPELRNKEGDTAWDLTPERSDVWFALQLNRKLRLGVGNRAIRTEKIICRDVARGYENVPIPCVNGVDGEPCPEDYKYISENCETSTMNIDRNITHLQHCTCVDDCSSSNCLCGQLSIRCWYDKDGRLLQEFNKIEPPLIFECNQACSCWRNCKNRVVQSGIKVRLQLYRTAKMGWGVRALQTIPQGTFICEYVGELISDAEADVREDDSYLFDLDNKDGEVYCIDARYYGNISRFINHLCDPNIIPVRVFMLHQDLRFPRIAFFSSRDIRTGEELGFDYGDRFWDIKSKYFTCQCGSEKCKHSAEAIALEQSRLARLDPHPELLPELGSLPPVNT
# Assay: qHTS Assay for Inhibitors of Histone Lysine Methyltransferase G9a; further: nearly all actives have a fitted effect of over 75% in size
# Conditions: G9a H3K9 monomethylation, AlphaScreen, 2 h; activity, negative = inhibition: at 59 µM (top of the series) unless noted
# How it was run: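 Quantitative HTS format: methyltransferase activity on a biotin-tagged H3K9 peptide is measured by AlphaScreen, using a rabbit anti-monomethyl-H3K9 antibody with streptavidin donor and anti-IgG acceptor beads. Final levels are 20 nM enzyme, 500 nM peptide, 20 uM SAM; 2 h RT.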
# On the % scale 0 is the no-effect control and ±100 the full control effect; potency means the concentration at half of the fitted maximal effect; tags describe the fitted curve by direction and shape.
SMILES,"activity, negative = inhibition",Potency
CCCCCCCCCCCCCCCC[n+]1ccccc1,inactive: -35.4% [at 2.33 µM],–
CCOc1cc(/C=C(\C#N)C(=O)NCC2CCCO2)ccc1OCC(N)=O (stereo unspecified),–,active: 50.1 µM
COc1ccc(CN2C(=O)NC(=O)/C(=C/c3ccc([N+](=O)[O-])o3)C2=O)cc1,–,active: 7.08 µM
CN(C(=O)Cc1ccccc1)[C@H](CN1CCCC1)c1ccccc1,inactive: -7.57%,–
Cc1cccc(N2C(=O)NC(=O)/C(=C\c3ccc4c(c3)CCCN4Cc3ccccc3)C2=O)c1,–,"inconclusive: 17.8 µM [inhibitor, partial curve, poor fit]"
c1ccc2c(CNC3CCCCCC3)c[nH]c2c1,–,"inconclusive: 89.1 µM [inhibitor, single point]"
C=CCn1c(O)c(C(C)=NCCN2CCCCC2)c(=O)[nH]c1=O,–,"inconclusive: 89.1 µM [inhibitor, single point]"
CN(C)C(=O)Oc1ccc(OCc2n(C)c3ccccc3[n+]2C)cc1,–,"inconclusive: 79.4 µM [inhibitor, partial curve, poor fit]"
CCOP(=S)(OCC)Oc1nc(Cl)c(Cl)cc1Cl,inactive: -3% [at 0.501 µM],–
Nc1c2c(nc3sc4c(c13)CCCC4)CCCCC2,–,"inconclusive: 35.5 µM [inhibitor, partial curve, poor fit]"
O=C(O)C(O)(c1ccccc1)C1CCCC1 (stereo unspecified),–,active: 25.1 µM
O=C1CC(=O)N(Cc2ccccc2)C(=S)N1,–,active: 79.4 µM
CN1C[C@H](C(=O)N[C@@]2(C)O[C@@]3(O)C4CCCN4C(=O)C(Cc4ccccc4)N3C2=O)C[C@H]2c3cccc4[nH]cc(c34)C[C@H]21 (stereo partly specified),inactive: -8.54% [at 2.33 µM],–
COc1ccc(NC2=NCC(C)S2)cc1 (stereo unspecified),–,"inconclusive: 39.8 µM [inhibitor, partial curve, poor fit]"
CC(=O)Nc1ccc(NC(=O)Oc2ccccc2)cc1,–,"inconclusive: 70.8 µM [inhibitor, single point]"
O=c1[nH]c(=O)n(-c2ccc(Cl)cc2)c(O)c1C=Nc1ccc(S(=O)(=O)Nc2nccs2)cc1,–,"inconclusive: 89.1 µM [inhibitor, single point]"
COCCNC(=O)c1c(NC(=O)c2ccc(Br)o2)n(Cc2ccccc2)c2nc3ccccc3nc12,–,"inconclusive: 89.1 µM [inhibitor, single point]"
CCOP(=O)(Cc1cc(C(=O)CC)c(C)o1)OCC,–,active: 8.91 µM
CCn1c(O)c(C=NCc2ccccc2)c(=O)[nH]c1=S,–,"inconclusive: 79.4 µM [inhibitor, partial curve, poor fit]"
COP(=S)(OC)Oc1ccc(Sc2ccc(OP(=S)(OC)OC)cc2)cc1,–,"inconclusive: 0.794 µM [inhibitor, full curve, poor fit]"
N[C@@H](Cc1c[nH]c2ccccc12)c1nnc(SCc2ccc(Cl)cc2)o1,–,"inconclusive: 39.8 µM [inhibitor, single point]"
CCOC(=O)c1cnc2c(ccc3ccccc32)c1Nc1ccc(N(C)C)cc1,–,active: 2.51 µM

SMILES,"activity, negative = inhibition",Potency
COc1cc(OC)c(OC)cc1/C=C1/C(=O)NC(=O)N(Cc2ccccc2)C1=O,–,active: 50.1 µM
CCCCCCOc1ccc(CN2CCN(CCO)CC2)cc1,–,"inconclusive: 1.78 µM [inhibitor, partial curve, poor fit]"
COc1ccc(CNCCc2ccc(Cl)cc2)c(OC)c1OC,–,active: 35.5 µM
CN1CCC(O)(c2ccc(Cl)cc2)C(C(=O)c2ccc(Cl)cc2)C1 (stereo unspecified),–,active: 10 µM
O=C(NC1CN2CCC1CC2)c1ccc(-c2ccc([N+](=O)[O-])cc2)o1 (stereo unspecified),–,"inconclusive: 12.6 µM [inhibitor, partial curve, poor fit]"
C=C1C2C[C@@]3([C@@H]1O)[C@@H](C[C@@H]2O)[C@@]12C4[C@@H]3C[C@@H]1[C@@](C)(CC[C@@H]2O)CN4CC,–,"inconclusive: 15.8 µM [inhibitor, partial curve, poor fit]"
CN1C(=O)/C(=C\N2CCc3ccccc32)C(=O)NC1=S,–,"inconclusive: 2.82 µM [inhibitor, full curve, poor fit]"
CC(=O)N1CCN(c2ccc(N=Cc3c(O)n(-c4ccc(Cl)cc4)c(=O)[nH]c3=O)cc2)CC1,–,"inconclusive: 2.51 µM [inhibitor, partial curve, poor fit]"
CN(c1ccccc1)c1ccc([N+](=O)[O-])c2nonc12,–,active: 15.8 µM
CCC1C=CC=CC[C@H](C)[C@@H](O)[C@](C)(O)C(=O)[C@@H](C)[C@H](O)[C@@H](C)C(=O)[C@H](C)[C@@H](O)[C@H](C)C=CC(=O)OC2[C@@H](C)C(CC1)OC1(CC[C@@H](C)C(C[C@H](C)O)O1)[C@@H]2C (stereo partly specified),inactive: -21% [at 12.7 µM],–
O=C(NCc1ccc2c(c1)OCO2)c1cc(-n2cnnc2)ccc1Cl,–,"inconclusive: 1.78 µM [inhibitor, partial curve, poor fit]"
COc1cccc(OCC(=O)N2CCN(C)CC2)c1,inactive: 0.964%,–
Cc1cccc(CN2CCN(C(=O)Cc3ccccc3)CC2)c1,–,active: 28.2 µM
CN(C(=O)CNC(=O)OCc1ccccc1)c1ccc(Br)cc1C(=O)c1ccccc1Cl,inactive: 23.2%,–
CCOC(=O)C(NC(C)=O)C(OC(C)=O)c1cccc(N(CCCl)CCCl)c1 (stereo unspecified),–,active: 14.1 µM
CN1C(=O)N(C)C(=O)C2(Cc3cc([N+](=O)[O-])ccc3N(C)C2c2ccccc2)C1=O (stereo unspecified),–,"inconclusive: 22.4 µM [inhibitor, single point]"
CN(C)[C@@H]1C(=O)C(C(N)=O)=C(O)[C@@]2(O)C(=O)C3=C(O)c4c(O)cccc4[C@@](C)(O)[C@H]3[C@H](O)[C@@H]12,–,active: 3.98 µM and active: 2 µM and active: 11.2 µM
CCN1C(=O)/C(=C/c2ccc3c(c2)CCN3CCCCl)C(=O)NC1=S,–,"inconclusive: 8.91 µM [inhibitor, partial curve, poor fit]"
CCOc1cc2c(cc1OCC)-n1cccc1C(c1ccc(C(C)C)cc1)NC2 (stereo unspecified),–,"inconclusive: 50.1 µM [inhibitor, partial curve, poor fit]"
CCCOc1ccc(N2CC(C(=O)Nc3ccccc3F)CC2=O)cc1 (stereo unspecified),–,"inconclusive: 89.1 µM [inhibitor, single point]"
Cc1cccc(N2C(=O)NC(=O)/C(=C/c3ccc(-c4ccc(C(=O)O)c(Cl)c4)o3)C2=O)c1,–,active: 10 µM
O=C(O)C1Sc2[nH]c(=O)sc2C2c3cc(Cl)ccc3OC(=O)C12 (stereo unspecified),–,active: 28.2 µM

SMILES,"activity, negative = inhibition",Potency
CC(=O)Nc1ccc([As](=O)(O)c2ccc([N+](=O)[O-])cc2)cc1,inactive: -29.6% [at 102 µM],–
NCCCP(=O)(O)CCc1ccccc1,–,"inconclusive: 89.1 µM [inhibitor, single point]"
CSc1nnc(C2CCNCC2)n1C,inconclusive: -88.5% [inhibitor],–
O=C1NC(=S)NC(=O)C12C(c1ccc(F)cc1)NC(=S)NC2c1ccc(F)cc1 (stereo unspecified),inconclusive: -72.6% [inhibitor],–
COc1cc(OC)c(OC)cc1CNC(C)C(O)c1ccccc1 (stereo unspecified),–,"inconclusive: 89.1 µM [inhibitor, single point]"
CC1(C)CN2C(c3ccc(Cl)cc3)N2C1 (stereo unspecified),–,"inconclusive: 70.8 µM [inhibitor, single point]"
COc1ccccc1-n1c(-c2ccoc2)nc2ccccc2c1=O,inactive: 25.3% [at 102 µM],–
COc1ccc(-c2nn(-c3ccccc3)cc2C(=O)N2c3ccc(C)cc3C3CN(C)CCC32)cc1 (stereo unspecified),–,"inconclusive: 70.8 µM [inhibitor, partial curve, poor fit]"
Cc1cccc(NC(=S)NC2CC3CCC(C2)N3Cc2ccco2)c1 (stereo unspecified),–,"inconclusive: 6.31 µM [inhibitor, single point]"
COC(=O)C1=C(c2ccc(F)cc2OCc2ccccc2)C[C@@H]2CC[C@H]1N2C(=O)NCCNC(C)=O,inactive: 4.59% [at 0.501 µM],–
COc1ccccc1OCCCn1cc(C(=O)c2ccco2)c2ccccc21,–,"inconclusive: 11.2 µM [inhibitor, partial curve]"
CCOP(=O)(OCC)C(NC(=O)c1ccc(C)cc1)C(Cl)(Cl)Cl (stereo unspecified),–,"inconclusive: 89.1 µM [inhibitor, single point]"
C/C(=N\NC(=S)Nc1ccccc1)c1c(O)n(C)c(=O)n(C)c1=O,–,active: 1.26 µM
CSc1ccccc1C(=O)C1CCCN(Cc2ccn[nH]2)C1 (stereo unspecified),–,"inconclusive: 79.4 µM [inhibitor, single point]"
CN1CCN(c2c(N)c(=O)oc3ccccc23)CC1,–,"inconclusive: 79.4 µM [inhibitor, single point]"
On1ccccc1=S,–,active: 1.12 µM
Cc1cccc(CN2CC=C(c3noc(CCC(=O)Nc4ccc(C)c(F)c4)n3)CC2)c1,–,"inconclusive: 39.8 µM [inhibitor, partial curve, poor fit]"
Cc1ccc(-n2sc3ccccc3c2=O)cc1,–,active: 1.12 µM
Fc1ccc(C2=CCN(C(c3ccc(Cl)cc3)c3nnnn3Cc3ccccc3)CC2)cc1 (stereo unspecified),inactive: 15.7%,–
C=CCN1C(=O)NC(=O)/C(=C/c2c(CCN(C)C(=O)c3ccccc3)cc3c(c2OC)OCO3)C1=O,–,"inconclusive: 89.1 µM [inhibitor, single point]"
CCC(=NCCCN1CCOCC1)c1c(O)n(Cc2ccccc2)c(=O)[nH]c1=O,–,active: 12.6 µM
Cc1ccc(O)c(C(=O)c2cc(C(=O)NCc3ccccc3)c(=O)n(Cc3ccccc3)c2)c1,–,"inconclusive: 31.6 µM [inhibitor, full curve, poor fit]"
